Measured values reported in the supplement of paper PMC3334620.
The full ranking holds about 33,000 sequences; the median of “E-score (-0.5 to 0.5)” is about -0.017, and the highest 2% start at about 0.3. The list shows a part of the results.

molecular target: T1, Sut1 (UniProt P53032); test: PBM E-score (8-mer binding enrichment) (E-score (-0.5 to 0.5)); higher = stronger / more preferred TF binding; most listed sequences are background and not binding sites; conditions: protein concentration: 200 nM; construct: GST-full length
T1 sequence: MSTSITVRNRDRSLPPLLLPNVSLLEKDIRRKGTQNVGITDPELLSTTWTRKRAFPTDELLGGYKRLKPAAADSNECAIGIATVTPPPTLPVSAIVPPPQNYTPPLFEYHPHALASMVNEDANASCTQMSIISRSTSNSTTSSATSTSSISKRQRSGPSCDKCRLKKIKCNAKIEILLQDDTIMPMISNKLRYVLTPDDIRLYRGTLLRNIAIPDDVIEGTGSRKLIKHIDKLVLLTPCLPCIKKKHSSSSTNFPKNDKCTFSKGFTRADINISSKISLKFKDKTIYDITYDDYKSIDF
How it was run: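 Yeast transcription factors carrying a GST tag, as full-length proteins or DNA-binding domains, were produced by PURExpress in vitro transcription/translation. About 100-200 nM protein was applied to universal all-10-mer Agilent arrays, double-stranded by primer extension on fresh or once-stripped slides. Bound protein was detected with fluorescent anti-GST, and scans were normalised with masliner. The Universal PBM Analysis Suite gave each ungapped eight-base word, pooled with its reverse complement, an E-score, a modified Wilcoxon-Mann-Whitney statistic.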

Sequence | PBM E-score
AATCGACG | -0.0272
CAAGGACA | 0.0967
AACAACAG | 0.0641
AGTTCAGC | -0.166
ATGAAGTA | 0.0924
TAAAAATA | 0.249
AATCTCGT | 0.00271
CCTCACAA | 0.0593
GAATATAC | 0.203
GTCGTCAA | -0.053
CGATTGGA | -0.00069
AGAGTGTC | 0.154
CTCAAAGA | -0.0703
GTATAGTA | 0.252
CAGGTCCC | -0.182
AGCACATG | -0.00767
ATATGCAT | 0.0389
ACAGAAAG | 0.0888
GAGACAAA | 0.0118
CTTAATAA | 0.217
AACAGTGC | -0.0707
CACGAGTG | -0.112
GAAATAAC | 0.128
ACCTTTAC | -0.101
GGCGGTGA | -0.198

Sequence | PBM E-score
GCAGTCGA | -0.00287
ACGGCTAA | 0.129
TATCAACA | 0.0946
CGCGCCCA | -0.0784
TAACTTAA | 0.246
ACGTGGCA | -0.242
ACCCACGG | -0.236
AGGTTGTA | 0.103
CCGCCTCG | -0.105
TTCATAAA | 0.0803
GGCGACGA | -0.256
CGGGCTTC | 0.226
ACAGGAAC | -0.0368
AAATGCGA | 0.144
ATCTCGGA | 0.368
GCATTGTA | 0.0282
GACTTATA | 0.326
AGTGTCGA | -0.0848
CAATTGTC | -0.00096
ACACTACG | 0.0648
AGGAGTCA | 0.0481
CGACGACA | -0.181
ACCACGGC | -0.166
CGTTCGAG | -0.246
AATGTCGA | 0.126

Sequence | PBM E-score
GGAAGAAC | 0.047
ACACCCCA | -0.128
CAACAGTG | 0.102
CTACTACA | 0.161
GAATTATA | 0.335
ACTATGAG | 0.129
CGATTGAG | -0.0533
ACGACTAC | -0.171
GCTGTGAC | -0.326
ATCCTCCA | -0.0869
TCTGTTCA | -0.00016
CTATAGGA | -0.082
GGAAAGAC | -0.0333
TCTATTAA | 0.218
AGTCCAAG | -0.0863
GAAATTTA | 0.213
ATAAAAGG | 0.0432
GCGACCTA | -0.0189
AGGACAAC | -0.00371
GCTGGTGA | -0.045
CCTAAGCG | 0.00784
GCAATACC | -0.0445
GGCAAAAC | -0.0896
CACGAAAC | 0.0862
CCGTGCCA | -0.116

Sequence | PBM E-score
CCGACGCG | -0.0778
TAGCAGCA | 0.0287
TAATGGGA | -0.122
ATATAAGC | 0.0532
ACATGCTC | 0.00139
CACAGAAG | -0.0414
ACGATATA | 0.0215
CCTCCAAC | -0.0551
TCATCCGA | 0.132
CTGCGGTC | -0.183
TATGACGA | 0.0527
ATCAAGCA | 0.0714
AGTCTATG | -0.11
ATCCATAG | -0.108
CCTTAAAA | 0.0539
CCAGTATA | -0.0121
ATGAAGAA | 0.108
GCTCATAC | -0.0734
GAAAGCCC | 0.108
ATACTGGC | -0.252
AACGTGGT | -0.0478
GATCCACC | -0.14
GAATTCTC | 0.129
AGAGCCCA | -0.243
GGCTGGTA | -0.125

Sequence | PBM E-score
CCGATTCC | 0.27
AGTTGTGC | -0.253
AGGTGCAG | -0.158
CCATCGGG | -0.0849
TAAGGAAA | 0.156
AGAGCCGG | -0.184
CGGTTCGA | 0.0239
ATTGTTAC | 0.141
AGCTTATG | 0.0211
CTGGCAAG | -0.12
CAGTAGAG | -0.159
ATTATCTC | 0.177
AAAAGACG | 0.0362
ACGTCTGC | -0.29
ACAAGTTA | 0.152
GGTGCAAC | -0.131
GAGTCGGA | 0.324
ACGCCGAG | -0.0243
AGCTCGCG | 0.124
CACGACCG | -0.276
AGGACGCG | -0.0934
ACAGCAGT | -0.0771
AGAGGGAC | -0.0886
CGTGGGTC | -0.162
AAACTCAA | 0.242

Sequence | PBM E-score
CGAAGCGA | -0.0258
ATGTTTCC | 0.0702
CCCGCCAA | -0.143
AGCCCAAA | 0.00417
GGCGCAAA | 0.0173
GCCAGAGC | -0.206
CGGGCGGC | -0.0978
CAATCTCC | 0.312
AACCCGAC | -0.0177
AAGTGACT | -0.0409
CCTGGTGA | -0.172
GAGTATAA | 0.282
TCCCTAAA | 0.148
ACGAATTA | 0.0458
AGACGGAA | 0.0433
AAAGTGAA | 0.191
ACTCCACA | 0.0516
CTACTCAC | 0.0493
ATTCGGGC | -0.0696
AACGGTTG | 0.0727
ATCGAACA | 0.00237
CTAACTCA | 0.034
CTAGATTC | -0.059
GCGTTCGA | -0.0289
ACATTTTA | 0.238

Sequence | PBM E-score
CGGATGGC | -0.0619
ACCTGAAT | 0.0949
CCCAATGC | -0.194
CCCTGGTC | -0.326
GTAATTTA | 0.221
GCGCGGAC | 0.218
CGTTTTAA | 0.124
ACCAAAGG | -0.0819
CCGTGCAA | 0.178
AGAGTAAG | 0.016
GGATGACC | -0.219
AACACTAT | 0.266
AGTGTCAC | -0.0708
CTGTCGTC | -0.0675
CTGCTGAA | 0.0148
AGGGGTCG | -0.334
GACCAGCC | -0.0653
TACAACTA | 0.118
AGCAGCAC | -0.104
ATGAAACA | 0.0677
ACTACTCT | -0.0164
GACCGAGC | -0.206
